Results from the supplement of paper PMC10338343.
± gives the standard deviation. This is a selection; strong and weak results do not stand in their true shares.

Tested on: MIWI (PIWIL1) piRISC loaded with L1MC piRNA (30 nt)
Assay: pre-steady-state target cleavage rate (min^-1); MIWI and MILI are mouse PIWI proteins and EfPiwi is from a freshwater sponge; tags in brackets are library labels; higher = faster piRNA-guided slicing of the target
Conditions: guide: L1MC piRNA 5'p-UAACUAAAUACUAUGCAAGCUGUAGGUCCU; auxiliary factor: 500 nM mouse GTSF1
In short: (§1)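 In this Cleave-'n-Seq assay, uncleaved targets were sequenced and normalised to depth and to weakly complementary targets. They came from a transcribed, DNA-blocked target RNA library […] mixed with 1 nM active affinity-purified piRISC carrying one synthetic guide, with or without 500 nM GTSF1 partner protein, in HEPES–potassium acetate buffer at 33 °C for 0–8 or 0–960 min. After three trials were pooled and k3 was capped at 0.0001 min^-1, the pre-steady-state cleavage rate was obtained from a burst-and-steady-state fit.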
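Note: 1 nM active piRISC with 0.1 nM target library at 33 °C single turnover.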

Sequence	pre-steady-state target cleavage rate
UCCUGCUUCACCUUGCAUAGUAUUUAGUUA	0.818 ± 0.048
UCCUGGAUGAGGUUGCAUAGUAUUUUGUUA	0.102 ± 0.021
UGGACCUAGAGCUUGCAUAGUAUUAAGUUA	0.547 ± 0.052
UGGACCUACAGCUUGCUUAGAAUUUAGUUA	0.255 ± 0.022
UCCUGGAACAGCUUGCAUAGUAUUUAGUGUA	0.503 ± 0.037

Same assay, conditions: guide: L1MC piRNA 5'p-UAACUAAAUACUAUGCAAGCUGUAGGUCCU; auxiliary factor: none (no GTSF1)

Sequence	pre-steady-state target cleavage rate
UCCUGCUUCACCUUGCAUAGUAUUUAGUUA	0.0243 ± 0.0069
UCCUGGAUGAGGUUGCAUAGUAUUUUGUUA	0.00409 ± 0.0022
UGGACCUAGAGCUUGCAUAGUAUUAAGUUA	0.0189 ± 0.0049
UGGACCUACAGCUUGCUUAGAAUUUAGUUA	0.00925 ± 0.0033
UCCUGGAACAGCUUGCAUAGUAUUUAGUGUA	0.0275 ± 0.005

Tested on: MIWI (PIWIL1) piRISC loaded with piRNA #1 (30 nt)
Assay: as above
Conditions: guide: piRNA #1 5'p-UGAGGUAGUAGGUUGUAUAGUAUCCAGAGG; auxiliary factor: 500 nM mouse GTSF1
In short: as §1

Sequence	pre-steady-state target cleavage rate
GGUCUGGAUAGUAUACAACCUACUAGCUCA	0.0144 ± 0.0064
GCUGUGGUUACUAUACAACCUACUACCUCA	2 ± 0.13
GGAGACCUAUGUAUACAUCCUACUAGCUCA	0.00199 ± 0.0016
GGAGACCUAACUAUACAACCUACUACCUCU [g2:g21:cont:t1U]	1 ± 0.072
GGAGACCAUACUAUACAACCAACUACCACA	0.114 ± 0.0095
GGAGACCUAUCUAAACAAGCUACUACCUCA	0.0359 ± 0.0095
GCUCUGGAUACUAUACAACCUACUUCCACA	0.312 ± 0.053
GGUCUCGAUACUAUACAACGUACUACCUCA	0.966 ± 0.056
GGAGACCAUACUAUACAACCUGCUACCUCA	0.46 ± 0.027
GGAGACGAUACUCAUACAACCUACUACCUCA	1.3 ± 0.081
GGUCUGGAUACUUAUACAACCUACUACCUCA	1.55 ± 0.11
GGAGACCUAUGAUAUGUACUCUACUACCUCA	< 0.0001
CCUCUGGAUUCUAAACAACCUACUACCUCA	0.844 ± 0.065
GGUCUGGUAUCUAUACAACCUACUACCUCA	1.73 ± 0.11
GGAGACCUAUGAUAUCAACCUACUAUCUCA	< 0.0001
GGAGACGAAACUAUACAACCUACUACCUCA	1.46 ± 0.12
GGACUGGAAACAAUACAACCUACUACCUCA	0.328 ± 0.048
CCUCUGGAUACAAUACAACCUACUACCACA	1.9 ± 0.13

Sequence	pre-steady-state target cleavage rate
GGAGUCGAUACUAUACAACCUACUACCACA	0.957 ± 0.066
GGAGACCAUACUAUACAAGCUACUUCCUCA	0.678 ± 0.038
GGAGACCUUUCUAAACAACCUACUACCUCA	0.0719 ± 0.013
GGUCUGGAUACUAUACAACCUUCUAGCUCA	0.00513 ± 0.0025
CCUCUGGAUACUAACAACCUACUACCUCA	1.75 ± 0.13
GGAGUGGAUACUAUACAACCUACUACCUUCA	0.943 ± 0.059
CCAGAGGAUACUAUACAACCUACUACCUCA	0.35 ± 0.05
GGUCUGGAUACUAUAGAACCUACUACCUCA	0.995 ± 0.065
GGACUGGAUAGUAUACAACCUACUACCUCA	0.622 ± 0.062
GGUCUGGAAACUAUACAACCUACUACCUGA	0.715 ± 0.16
GGAGACCUAUCGAUACAACCUACUACCUCA	0.147 ± 0.026
GGAGUGGAUACUAUACAAGCUACUUCCUCA	0.374 ± 0.031
CCUCUGGAUACUAUUCAACCUACUUCCUCA	0.659 ± 0.051
CCUCUGGAUACUAUACAACCGACUACCUCA	0.0148 ± 0.0039
GGAGUGGAUACAAUACAACCUAGUACCUCA	0.54 ± 0.058
GGACUCGAUACUAUACAACCUACAACCUCA	0.296 ± 0.039
GGAGUGGAUACUAUAGAACCUACUACGUCA	0.0195 ± 0.005
